Results: paper PMC12136788
The other results are listed elsewhere or left out.

B1: ENSG00000152377:stop:overlap|stop_codon|ENSG00000152377|stop_codon|NA|stop_codon (ssRNA)
RNA: GGGAGUUCUACAGUCCGACGAUCUGACAGAGGAUGAUGAGGAUGAGGAUGAUGACAAAGAGGAUGAGGUCGGGUACAUAUGGUAGUGCCCACAAGAAAGAGGACACAAGUUUUGCACAAAAUUGCAAGUCACUUCCUAUUCCUCAACAGAGGAUUGAGCAUCA
B2: chr1:93180074:93180188:-|CDS|ENSG00000117500|unk|total|mutant (ssRNA)
RNA: GGGAGUUCUACAGUCCGACGAUCCUGGCCGCUCUGCCUCCGGUGCUGCUGCCUGGGGCGGCCGGCUUCACACCUUCCCUCGACCGCGACUUCACCUUUACCCUUCCCGCCGGCCAGAAGGAGUGCUUCUACCAGCCCAUGCCCCAACAGAGGAUUGAGCAUCA
B3: chr12:100626600:100626701:+|3pUTR|ENSG00000139354|unk|total|mutant (ssRNA)
RNA: GGGAGUUCUACAGUCCGACGAUCAAUUUUAUCAUCAAGUAUUCCCUUAUAAAACCAAGUAACACUUCUUUAUCAGUAACUUUCCGAACUUAAAAGAAAGCAAAAAGUAAAUGGAAUUGCCGGCAAUUUAUGAAUCCCCGCCGACAACAGAGGAUUGAGCAUCA
B4: chr4:177362735:177362840:+|3pUTR|ENSG00000109674|unk|total|mutant (ssRNA)
RNA: GGGAGUUCUACAGUCCGACGAUCAAAGUGUUUUCCGUAUGCUUUCCGUCUCUUGUAACUGGGGAGAAGCAGUGUUUUUUUUUCCGGAAAGGAUUAUGCGACACAAUAAAAUAAGAUAUUCUGUCUGCCGUGAAUACAUUUCUCCAACAGAGGAUUGAGCAUCA
B5: ENSG00000198589:be:win_901|CDS|ENSG00000198589|bound_else_gene|NA|bound_elsewhere_windowed (ssRNA)
RNA: GGGAGUUCUACAGUCCGACGAUCAUGGUUACCAUAGUACACAUCUAUAACCGAUGGAAGAAUAGUGAACUUCGAUGUUAUGUGAAUGGUGAGCUGGCUUCCUAUGGAGAGAUAACAUGGUUUGUCAACACUAGCGAUACCUUUCAACAGAGGAUUGAGCAUCA
B6: chr5:32419879:32419980:-|CDS|ENSG00000056097|msi1|total|mutant (ssRNA)
RNA: GGGAGUUCUACAGUCCGACGAUCAGUUACUGCUGCCUAUGCACCAGCAGCCGCCACAGUUGCAGUUGCCAGGCCUGCUCCAGCCGCUGUUGCAGCUGCUGCAACAGCUGCUGCUUAUGGAGGCUACCCCACUGCACACACAGCCAACAGAGGAUUGAGCAUCA
B7: chr5:14398947:14399058:+|CDS|ENSG00000038382|unk|total|mutant (ssRNA)
RNA: GGGAGUUCUACAGUCCGACGAUCCCCAAAAACCUUAAUUCGAAAGGGUCGAGAACGGCAUCUCUUCCUUUUUGAAAUGUCCUCCGUAUUCCGUAAAGAAGUGAAAGAUUCCAGUGGGAGAAGCAAGUACCUUUAUAAAAGCAACAACAGAGGAUUGAGCAUCA
B8: chr1:37534448:37537747:-|three_prime_utr|ENSG00000163877|control|control|control (ssRNA)
RNA: GGGAGUUCUACAGUCCGACGAUCCACAUGCCUGCAGGCAUUUGUUUUCAGAACAGUCUCACCAAUUACAACACACCGUGUUUUAGUAGAAGUGUUGUGGUUUUAGUUGGUGCUUUCAGAACUGCUGCCUAGGAAACUAUAAACCAACAGAGGAUUGAGCAUCA
B9: chr2:219567793:219567894:-|CDS|ENSG00000124006|msi1|total|mutant (ssRNA)
RNA: GGGAGUUCUACAGUCCGACGAUCCCUGCCCCGGAAGCUCGACGUCCUGGAAGGAGAGAAUGCUGUGCUGCCCGUGGAAACUCCCGAGGCCGGGGUCGAGGGACGCUGGAGCCGUGAUGGGGAGGAGCUGCCGGUCAUCUGCCACAACAGAGGAUUGAGCAUCA
B10: chr21:31659700:31659757:+|5pUTR|ENSG00000142168|msi1_unk|FALSE|overlapping (ssRNA)
RNA: GGGAGUUCUACAGUCCGACGAUCCGAGGCGCGGAGGUCUGGCCUAUAAAGUAGUCGCGGAGACGGGGUGCUGGUUUGCGUCGUAGUCUCCUGCAGCGUCUGGGGUUUCCGUUGCAGUCCUCGGAACCAGGACCUCGGCGUGGCCAACAGAGGAUUGAGCAUCA
B11: chr8:41543231:41543332:+|3pUTR|ENSG00000147536|msi1|total|mutant (ssRNA)
RNA: GGGAGUUCUACAGUCCGACGAUCAAACCAUUAUUAAAUUUCCAUUCUGCAGCAGAAGGCACCUCUGGACGGCUCCCGGCUUGCCGUUUAAUGAAGUAUGUGCUCCCUGCUGUUAACCCGCAGCCCUCCCCAACUCUCCAGCAGCAACAGAGGAUUGAGCAUCA
B12: chr3:50299934:50300035:-|3pUTR|ENSG00000114378|unk|total|mutant (ssRNA)
RNA: GGGAGUUCUACAGUCCGACGAUCCGUUGCCCAAGGUUGCACAGCAAGAAAAGGGAGAAGUUGAGAUUCAAACCCAGGCUGUCCCGCUCCGGGGGUACAGCCCUUGCACUCCUACUGAGUUUGUGGUAACCAGCCCUGCACGACCAACAGAGGAUUGAGCAUCA
B13: ENSG00000131238:stop:overlap|stop_codon|ENSG00000131238|stop_codon|NA|stop_codon (ssRNA)
RNA: GGGAGUUCUACAGUCCGACGAUCCUUCACCUCCCAUGAUCAAUCUGAUCUCGGUUGGGGGACAACAUCAAGUGCCUUGUGCAUAGUGGGUAUUCGAUACAUCAUUAUUGAAGGAGUGGAUAUUUGUCAUCUACCACUGUAGGUCAACAGAGGAUUGAGCAUCA
B14: chr6:107870184:107870285:-|3pUTR|ENSG00000025796|msi1|FALSE|bound_elsewhere (ssRNA)
RNA: GGGAGUUCUACAGUCCGACGAUCUAAUAUUUCCUAUAAAAGGGUGAAAGCAGUUUCUUUCUCUAUAACCUCAAUCACCAGUUUAGUGAGAGCCUUUCUUGGCAGGCAGGAGGCAGUGUCACUGAGGAUUUUUUUCAUUUACUUCAACAGAGGAUUGAGCAUCA
B15: chr5:139396562:139396955:-|CDS|ENSG00000170469|control|control|control (ssRNA)
RNA: GGGAGUUCUACAGUCCGACGAUCAGGGGUCCACAAGGUGGGGGCUUGUAGCCUAGGGGAGGAGCUGGGUCUUUGUUGUCUGGUAGGCACCACCGCUUCCUUUGGGUAUUUAAUCCCUUCCUAUAUAAACAGCCCUGGUUACCCCAACAGAGGAUUGAGCAUCA
B16: chr4:119293926:119294030:+|3pUTR|ENSG00000145390|unk|FALSE|unique (ssRNA)
RNA: GGGAGUUCUACAGUCCGACGAUCGAUGGAAUUUAAUUUUGCUCCUAGAAUUUUUGUCUUCAGAAUAUCUAGUUAAGAUAAAUUAGGCCUUUGACUAUUAUAGGUAUUCAUAAAUGCUACUUUAGCCAUGUAAGUUAAAAAGUUCAACAGAGGAUUGAGCAUCA
B17: chr1:117959336:117959438:+|CDS|ENSG00000065183|unk|FALSE|unique (ssRNA)
RNA: GGGAGUUCUACAGUCCGACGAUCGAUUAUCUCAAGAGGGAAUGCGAGGCAAAAAGUGAAGUUAUGUUUUUUGCUGAUGCUACUAGCCACUUGGAAGAGAAGAAGAGGAAGAGGAAAAAGAGGGAGAAGUUGAUUCUAACGUUGCAACAGAGGAUUGAGCAUCA
B18: chr14:71588152:71588260:+|CDS|ENSG00000197555|unk|total|mutant (ssRNA)
RNA: GGGAGUUCUACAGUCCGACGAUCGAAAACAUAAAAGAAUCCCGCCGUUCAAGCCAGGAAACCGAAACCUCAAGUUGCCUUGACCGCCUGUCCUCCAAAAGCAGUCCUGUGAGUCAGGGAAGUUCUGUCCGCCUCAAUUCCAAUCAACAGAGGAUUGAGCAUCA
B19: chr11:839720:840371:-|three_prime_utr|ENSG00000177700|control|control|control (ssRNA)
RNA: GGGAGUUCUACAGUCCGACGAUCACUCUGGAAGGAACCAUCCAGUAAAGGUCUUUCAGAACCACUAAGGUCCCAGCCCUCACUAGGAUGUCAGGAGCCAGGUCUAGGCCCAGCUUUCACACUGUGGCAGCCCAGUGAAGCAGACAACAGAGGAUUGAGCAUCA
B20: chr11:95129132:95129233:+|CDS|ENSG00000149218|msi1|FALSE|bound_elsewhere (ssRNA)
RNA: GGGAGUUCUACAGUCCGACGAUCAAUCCUGAAGAACAUUGUCUAUUUCCUGUGGUGUGUUACCAAGCAGGUGAUUAAUGGCAUAGAAAGUUGCCUUUACCGCCUGGGCUCAGCCACCAUCUCAUACUUCAUGGCCAUUGGGGACAACAGAGGAUUGAGCAUCA
B21: chr13:24435276:24435388:-|CDS|ENSG00000102699|unk|FALSE|unique (ssRNA)
RNA: GGGAGUUCUACAGUCCGACGAUCCAAAAGAAAAAUGGAAUUAUCUCAGCCAGAAGUUUCUGAAGAUUUUGAAGAGGAUGGCUUAGGUGUACUACCAGCUUUCACAUCAAAUUUGGAACGUGGAGGUGUGGAAAAGCUAUUGGACAACAGAGGAUUGAGCAUCA
B22: chr12:3284029:3284272:+|3pUTR|ENSG00000011105|msi1|FALSE|unique (ssRNA)
RNA: GGGAGUUCUACAGUCCGACGAUCCAUGUGGGUAUUCCCACAACAGGUUCUGCACACCCCAGUUAUUUCACAGACAUUCCUGCUAGAAACUGUCAGACAAAUACCUCUCUAGUUCGGAUGCUGCUCACUUUCCCCCUUGCUUCUCAACAGAGGAUUGAGCAUCA

What follows are binders tested against MSI1 full-length (mouse, UniProt Q61474 1-362) (assay: nsRBNS (natural sequence RNA bind-n-seq); RBNS binding buffer (assumed for nsRBNS): 25 mM Tris pH 7.5, 150 mM KCl, 3 mM MgCl2, 0.01% Triton X-100, 500 ug/ml BSA, 20 U/ml SUPERase-In, 4 C; UNK is unkempt and MSI1 is Musashi-1; names of the RNAs are library labels; protein concentration not given here; high values mean tight binding).
Chain of UniProt Q61474 (Q61474 whole entry): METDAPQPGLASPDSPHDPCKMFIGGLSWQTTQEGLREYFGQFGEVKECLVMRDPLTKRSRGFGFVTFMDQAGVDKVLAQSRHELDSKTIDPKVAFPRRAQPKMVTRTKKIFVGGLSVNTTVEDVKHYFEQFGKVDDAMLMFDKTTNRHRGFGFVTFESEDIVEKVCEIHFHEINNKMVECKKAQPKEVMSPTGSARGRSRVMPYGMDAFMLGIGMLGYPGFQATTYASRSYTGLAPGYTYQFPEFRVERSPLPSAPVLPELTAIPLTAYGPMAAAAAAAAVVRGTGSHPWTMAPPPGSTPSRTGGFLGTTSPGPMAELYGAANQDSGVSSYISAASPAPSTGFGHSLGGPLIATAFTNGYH

Row | Binder | binding signal [enrichment R]
1 | B1 | 0.454
2 | B2 | 0.67
3 | B3 | 0.907
4 | B4 | 0.359
5 | B5 | 0.574
6 | B6 | 0.278
7 | B7 | 0.383
8 | B8 | 1.49
9 | B9 | 0.518
10 | B10 | 0.511
11 | B11 | 0.959
12 | B12 | 0.353
13 | B13 | 0.929
14 | B14 | 0.579
15 | B15 | 1.74
16 | B16 | 7.25
17 | B17 | 0.56
18 | B18 | 0.59
19 | B19 | 0.386
20 | B20 | 0.347
21 | B21 | 0.305
22 | B22 | 0.685
